Results as given in patent US8242178B2 (University of South Carolina, priority 2007, dated 2012).

Columns and labels:
[1] = system: activated T cells (splenocytes + anti-CD3 mAbs); experiment: Proliferation of anti-CD3 mAb-activated T cells, thymidine incorporation assay; type: cell-based; conditions: for effect of antagonist alone on T cell proliferation: in the absence of CBD
Jurkat cells [2] = experiment: Raf-1/MEK/ERK signaling in THC-treated Jurkat cells, Western blot; type: cell-based, human
thymocytes = experiment: THC- and CBD-induced thymocyte apoptosis with caspase inhibitors, CB1/CB2 or vanilloid receptor antagonists, TUNEL; type: cell-based; conditions: for induced thymocyte apoptosis in presence of VR1 antagonist capsazepine: 10 μM, 48 hours; for induced thymocyte apoptosis in presence of CB1 antagonist / induced thymocyte apoptosis in presence of CB2 antagonist / induced thymocyte apoptosis in presence of caspase 3, 8 and 9 inhibitors: about 10 μM, 24 hr, TUNEL
[3] = system: Jurkat cell line (Mek/30); experiment: THC-induced apoptosis in Jurkat cells inducibly expressing constitutively active MEK
Jurkat cells [4] = experiment: Mitochondrial localization of Bad in THC-stimulated Jurkat cells, confocal microscopy; conditions: 10 μM THC versus vehicle
Jurkat cells [5] = experiment: CBD-induced apoptosis in Jurkat cells, TUNEL and Wright-Giemsa staining; type: cell-based, human
Jurkat cells [6] = experiment: Activation of the caspase cascade in Jurkat cells, Western blot; type: cell-based, human
[7] = system: SEB-induced activation of Vβ8+ T cells; set-up: species or system C57BL/6 mice; conditions: mouse, in vivo
[8] = system: Con A-induced autoimmune hepatitis; experiment: Con A-induced autoimmune hepatitis in mice; type: in vivo, C57BL/6 mice; conditions: CBD about 50 mg/kg i.p.
cannabinoid receptor CB1 = cannabinoid receptor CB1 (Homo sapiens, UniProt P21554); conditions: cited from earlier work
CB2 = CB2 (Homo sapiens, UniProt P34972); conditions: cited from earlier work
VR-1 = VR-1 (Homo sapiens, UniProt Q8NER1); conditions: cited from earlier work
splenocytes = experiment: Apoptosis induction in splenocytes in vitro, TUNEL; conditions: 24 hrs
[9] = system: activated B cells (splenocytes + LPS); experiment: Proliferation of LPS-activated B cells, thymidine incorporation assay; conditions: 48 hr
[10] = system: thymus and spleen cellularity; experiment: Thymic and splenic cellularity after in vivo treatment, trypan blue dye exclusion; conditions: 50 or 100 mg/kg body weight, after 24 hr
[11] = cannabinoid antagonist alone (about 2 μM SR141716, about 4 μM SR144528)

Chain of UniProt P34972 (P34972 whole entry): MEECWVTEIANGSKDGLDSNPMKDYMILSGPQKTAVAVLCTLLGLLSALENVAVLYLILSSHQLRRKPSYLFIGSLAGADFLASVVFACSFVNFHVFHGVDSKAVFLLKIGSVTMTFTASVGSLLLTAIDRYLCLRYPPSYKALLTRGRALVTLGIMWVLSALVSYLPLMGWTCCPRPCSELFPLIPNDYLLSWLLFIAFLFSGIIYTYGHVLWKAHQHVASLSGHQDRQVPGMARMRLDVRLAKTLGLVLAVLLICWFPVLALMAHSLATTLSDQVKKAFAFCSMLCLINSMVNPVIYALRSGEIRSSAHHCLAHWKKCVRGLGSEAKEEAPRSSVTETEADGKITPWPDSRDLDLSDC
Chain of UniProt P21554 (P21554 whole entry): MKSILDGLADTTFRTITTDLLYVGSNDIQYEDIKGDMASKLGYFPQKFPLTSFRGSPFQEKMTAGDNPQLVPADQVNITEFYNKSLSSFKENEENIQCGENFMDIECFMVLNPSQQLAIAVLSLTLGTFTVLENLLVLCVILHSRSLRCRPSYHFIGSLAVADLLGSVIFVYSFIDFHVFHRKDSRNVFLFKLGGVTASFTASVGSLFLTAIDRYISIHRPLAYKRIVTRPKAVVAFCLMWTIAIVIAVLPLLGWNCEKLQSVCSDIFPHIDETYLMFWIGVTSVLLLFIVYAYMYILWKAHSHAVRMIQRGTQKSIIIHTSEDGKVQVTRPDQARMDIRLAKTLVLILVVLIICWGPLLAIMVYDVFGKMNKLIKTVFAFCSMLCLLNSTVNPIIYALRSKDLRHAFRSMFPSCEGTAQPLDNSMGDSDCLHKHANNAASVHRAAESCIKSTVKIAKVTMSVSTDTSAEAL

## SR144528 [reference compound]
[1]
  effect of antagonist alone on T cell proliferation: failed to exhibit a significant effect
Jurkat cells [2]; [11]
  Raf-1 expression: little effect

## CCCCCc1cc(O)c2c(c1)OC(C)(C)[C@@H]1CCC(C)=C[C@@H]21 [THC, Δ9-tetrahydrocannabinol]
thymocytes
  induced thymocyte apoptosis in presence of VR1 antagonist capsazepine: not altered
  induced thymocyte apoptosis in presence of CB1 antagonist: significantly block
  induced thymocyte apoptosis in presence of CB2 antagonist: significantly block
  induced thymocyte apoptosis in presence of caspase 3, 8 and 9 inhibitors: significantly blocked
Jurkat cells [2]; 10 μM THC
  levels of phosphorylation of MEK: diminished
  phosphorylation of ERK1/2: largely decreased
Jurkat cells [2]; 10 μM THC alone
  Raf-1 expression: very pronounced reduction
Jurkat cells [2]; THC
  phospho-p38 or phospho-JNK: none of the THC concentrations tested induced alterations
[3]; THC alone, absence of doxycycline
  DNA fragmentation: unequivocal induction
[3]; THC in the absence of doxycycline
  apoptosis of cells: ~50%
Jurkat cells [4]
  association of Bad with mitochondria: strong association

## Cc1c(C(=O)NN2CCCCC2)nn(-c2ccc(Cl)cc2Cl)c1-c1ccc(Cl)cc1 [SR141716A, reference compound]
[1]
  effect of antagonist alone on T cell proliferation: failed to exhibit a significant effect
Jurkat cells [2]; [11]
  Raf-1 expression: little effect

## C=C(C)[C@@H]1CCC(C)=C[C@H]1c1c(O)cc(CCCCC)cc1O [CBD, cannabidiol]
[1]; CBD plus SR141716A or SR144528
  block of CBD-induced decrease in T cell proliferative response by CB1 and CB2 receptor antagonists: failed to block
[1]; about 5 μM CBD, anti-CD3 mAbs, 48 hr
  T cell proliferation: not affected
[1]; about 10 μM CBD, anti-CD3 mAbs, 48 hr
  T cell proliferative response: completely inhibited
thymocytes
  induced thymocyte apoptosis in presence of VR1 antagonist capsazepine: significantly inhibited
  induced thymocyte apoptosis in presence of CB1 antagonist: completely failed to block
  induced thymocyte apoptosis in presence of CB2 antagonist: blocked it partially
  induced thymocyte apoptosis in presence of caspase 3, 8 and 9 inhibitors: involvement of caspases was noted
Jurkat cells [5]; CBD after pretreatment with SR144528
  morphology of Jurkat cells (Wright-Giemsa): significantly fewer signs of apoptosis
Jurkat cells [5]; about 5.0 μM CBD
  morphology of Jurkat cells (Wright-Giemsa): majority of the Jurkat cells displayed classical morphological features of apoptosis
Jurkat cells [5]; about 5 μM CBD, 16 h
  cannabidiol-induced apoptosis of Jurkat cells in presence of CB1 antagonist: unable to prevent
Jurkat cells [5]; about 5.0 μM CBD, 16 h, vehicle 3.5%
  apoptosis of Jurkat cells (TUNEL): 83.5%
Jurkat cells [5]; about 5.0 μM CBD, pre-exposed to CB2-selective antagonist SR144528
  apoptosis of Jurkat cells (TUNEL): 18.7%
Jurkat cells [6]
  CBD concentration leading to activation of the caspase cascade: ≥ 2.5 µM
  CBD-mediated induction of the caspase cascade in presence of CB2 antagonist SR144528: significantly prevent
[7]
  Vβ8+ T cells in lymph node: 12.8%
  absolute SEB reactive Vβ8+ T cell numbers: dose dependent decrease
  popliteal lymph node cellularity: dose dependent decrease
[8]; 48 h after Con A challenge
  liver damage (hematoxylin-eosin staining): significantly reduced
[8]; ConA 12.5 mg/kg i.v., 6, 12, 24 and 48 h
  plasma AST levels: marked decrease
Cannabinoid receptor CB1
  activity against cannabinoid receptor CB1: little or no activity
CB2
  activity against CB2: moderate activity
VR-1
  VR-1 agonist potency: potency equivalent to capsaicin
splenocytes
  CBD concentration inducing apoptosis of splenocytes (dose dependent increase): ≥ 2.5 µM
[9]; about 5 μM CBD
  B cell proliferative response: completely decreased the response
[9]; about 10 μM CBD
  B cell proliferative response: completely inhibited
[10]
  splenic cellularity: dose dependent decrease
  thymic cellularity: dose dependent decrease
